T1: RBFOX1 RRM (Homo sapiens, UniProt Q9NWB1 109-208)
T1 sequence: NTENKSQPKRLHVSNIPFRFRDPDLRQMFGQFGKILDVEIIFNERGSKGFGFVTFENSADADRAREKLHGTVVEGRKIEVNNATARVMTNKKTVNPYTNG

B1: AAGGAUC (DNA:RNA)
RNA: GGGAGACCGGAAUUCAGAUUGUCCAAGGAUCUUAAAUCCCGUCGUAGCCACCA
DNA 1: CAATCTGAATTCCGGTCTCCC
DNA 2: TGGTGGCTACGACGGGATT
B2: CGGCACU (DNA:RNA)
RNA: B1 RNA with A25C, A26G, G28C, U30C, C31U
DNA 1: CAATCTGAATTCCGGTCTCCC
DNA 2: TGGTGGCTACGACGGGATT
B3: CAGGUCC (DNA:RNA)
RNA: B1 RNA with A25C, A29U, U30C
DNA 1: CAATCTGAATTCCGGTCTCCC
DNA 2: TGGTGGCTACGACGGGATT
B4: UUCUACG (DNA:RNA)
RNA: B1 RNA with A25U, A26U, G27C, G28U, U30C, C31G
DNA 1: CAATCTGAATTCCGGTCTCCC
DNA 2: TGGTGGCTACGACGGGATT
B5: AGAGUUU (DNA:RNA)
RNA: B1 RNA with A26G, G27A, A29U, C31U
DNA 1: CAATCTGAATTCCGGTCTCCC
DNA 2: TGGTGGCTACGACGGGATT
B6: GGGGUUC (DNA:RNA)
RNA: B1 RNA with A25G, A26G, A29U
DNA 1: CAATCTGAATTCCGGTCTCCC
DNA 2: TGGTGGCTACGACGGGATT
B7: UGAUCUU (DNA:RNA)
RNA: B1 RNA with A25U, A26G, G27A, G28U, A29C, C31U
DNA 1: CAATCTGAATTCCGGTCTCCC
DNA 2: TGGTGGCTACGACGGGATT
B8: GACAGUG (DNA:RNA)
RNA: B1 RNA with A25G, G27C, G28A, A29G, C31G
DNA 1: CAATCTGAATTCCGGTCTCCC
DNA 2: TGGTGGCTACGACGGGATT
B9: CCCCGAA (DNA:RNA)
RNA: GGGAGACCGGAAUUCAGAUUGUCCCCCCGAAUUAAAUCCCGUCGUAGCCACCA
DNA 1: CAATCTGAATTCCGGTCTCCC
DNA 2: TGGTGGCTACGACGGGATT
B10: AUCUUCU (DNA:RNA)
RNA: B1 RNA with A26U, G27C, G28U, A29U, U30C, C31U
DNA 1: CAATCTGAATTCCGGTCTCCC
DNA 2: TGGTGGCTACGACGGGATT
B11: UUCAGAA (DNA:RNA)
RNA: B9 RNA with C25U, C26U, C28A
DNA 1: CAATCTGAATTCCGGTCTCCC
DNA 2: TGGTGGCTACGACGGGATT
B12: CGUCAUA (DNA:RNA)
RNA: B9 RNA with C26G, C27U, G29A, A30U
DNA 1: CAATCTGAATTCCGGTCTCCC
DNA 2: TGGTGGCTACGACGGGATT
B13: GAGCGCC (DNA:RNA)
RNA: B1 RNA with A25G, G28C, A29G, U30C
DNA 1: CAATCTGAATTCCGGTCTCCC
DNA 2: TGGTGGCTACGACGGGATT
B14: UCAAACU (DNA:RNA)
RNA: B1 RNA with A25U, A26C, G27A, G28A, U30C, C31U
DNA 1: CAATCTGAATTCCGGTCTCCC
DNA 2: TGGTGGCTACGACGGGATT
B15: GAUUACA (DNA:RNA)
RNA: B1 RNA with A25G, G27U, G28U, U30C, C31A
DNA 1: CAATCTGAATTCCGGTCTCCC
DNA 2: TGGTGGCTACGACGGGATT
B16: UUAAAAC (DNA:RNA)
RNA: B1 RNA with A25U, A26U, G27A, G28A, U30A
DNA 1: CAATCTGAATTCCGGTCTCCC
DNA 2: TGGTGGCTACGACGGGATT
B17: CCAGUAG (DNA:RNA)
RNA: B9 RNA with C27A, C28G, G29U, A31G
DNA 1: CAATCTGAATTCCGGTCTCCC
DNA 2: TGGTGGCTACGACGGGATT
B18: AAGGUAA (DNA:RNA)
RNA: B1 RNA with A29U, U30A, C31A
DNA 1: CAATCTGAATTCCGGTCTCCC
DNA 2: TGGTGGCTACGACGGGATT
B19: AUUAUAA (DNA:RNA)
RNA: B9 RNA with C25A, C26U, C27U, C28A, G29U
DNA 1: CAATCTGAATTCCGGTCTCCC
DNA 2: TGGTGGCTACGACGGGATT
B20: UUAGCAU (DNA:RNA)
RNA: B1 RNA with A25U, A26U, G27A, A29C, U30A, C31U
DNA 1: CAATCTGAATTCCGGTCTCCC
DNA 2: TGGTGGCTACGACGGGATT
B21: GCACUUG (DNA:RNA)
RNA: B9 RNA with C25G, C27A, G29U, A30U, A31G
DNA 1: CAATCTGAATTCCGGTCTCCC
DNA 2: TGGTGGCTACGACGGGATT
B22: CAGUGCA (DNA:RNA)
RNA: B9 RNA with C26A, C27G, C28U, A30C
DNA 1: CAATCTGAATTCCGGTCTCCC
DNA 2: TGGTGGCTACGACGGGATT
B23: GGUAUAA (DNA:RNA)
RNA: B9 RNA with C25G, C26G, C27U, C28A, G29U
DNA 1: CAATCTGAATTCCGGTCTCCC
DNA 2: TGGTGGCTACGACGGGATT
B24: UCCCGCA (DNA:RNA)
RNA: B9 RNA with C25U, A30C
DNA 1: CAATCTGAATTCCGGTCTCCC
DNA 2: TGGTGGCTACGACGGGATT
B25: CCCACAG (DNA:RNA)
RNA: B9 RNA with C28A, G29C, A31G
DNA 1: CAATCTGAATTCCGGTCTCCC
DNA 2: TGGTGGCTACGACGGGATT
B26: CCGACUG (DNA:RNA)
RNA: B1 RNA with A25C, A26C, G28A, A29C, C31G
DNA 1: CAATCTGAATTCCGGTCTCCC
DNA 2: TGGTGGCTACGACGGGATT
B27: CUAGCAC (DNA:RNA)
RNA: B1 RNA with A25C, A26U, G27A, A29C, U30A
DNA 1: CAATCTGAATTCCGGTCTCCC
DNA 2: TGGTGGCTACGACGGGATT
B28: GCCGGUG (DNA:RNA)
RNA: B9 RNA with C25G, C28G, A30U, A31G
DNA 1: CAATCTGAATTCCGGTCTCCC
DNA 2: TGGTGGCTACGACGGGATT
B29: GGCGACC (DNA:RNA)
RNA: B1 RNA with A25G, A26G, G27C, U30C
DNA 1: CAATCTGAATTCCGGTCTCCC
DNA 2: TGGTGGCTACGACGGGATT
B30: CAGUGCG (DNA:RNA)
RNA: B1 RNA with A25C, G28U, A29G, U30C, C31G
DNA 1: CAATCTGAATTCCGGTCTCCC
DNA 2: TGGTGGCTACGACGGGATT
B31: CUUUUCA (DNA:RNA)
RNA: B9 RNA with C26U, C27U, C28U, G29U, A30C
DNA 1: CAATCTGAATTCCGGTCTCCC
DNA 2: TGGTGGCTACGACGGGATT

Residue numbers refer to the chain shown, from its start. Some of the results follow.

For the experiment, the target named is T1, RBFOX1 RRM. Description: EMSA; HiTS-Eq, 1 nM pool, 10 min; buffer printed only for the single-RNA assays: 10 mM Tris pH 7.5, 150 mM NaCl, 3.4 mM EDTA, 0.001% NP-40, 30 C. The note with it: tags: His6 N-terminal (pET28a); label: 5' 32P. The essentials:
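A pool of RNA with 7 randomized nucleotides, 5′-radiolabelled and with DNA-annealed flanks, was equilibrated at 1 nM for 10 min in 50 µL with purified RbFox RRM, wild type or mutant, across increasing protein concentrations. Free RNA was separated by 8% native PAGE, excised, reverse-transcribed, barcoded by PCR and sequenced. Relative association constants were obtained from read-count changes of each RNA species versus the control reaction and normalised to the cognate motif.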
B1: the binding signal is 0.00964 KA relative to UGCAUGU.

As for B2, the binding signal was 0.0111 KA relative to UGCAUGU.

Regarding B3, the binding signal was 0.0102 KA relative to UGCAUGU.

With B4, the binding signal is 0.0102 KA relative to UGCAUGU.

As to B5, the binding signal was 0.00931 KA relative to UGCAUGU.

Consider B6, for which the binding signal was 0.0437 KA relative to UGCAUGU.

Regarding B7, the binding signal was 0.0165 KA relative to UGCAUGU.

As for B8, the binding signal is 0.0177 KA relative to UGCAUGU.

As to B9, the binding signal is 0.00141 KA relative to UGCAUGU.

Take B10: the binding signal was 0.00317 KA relative to UGCAUGU.

Take B11: the binding signal was 0.00968 KA relative to UGCAUGU.

Turning to B12, the binding signal is 0.00342 KA relative to UGCAUGU.

B13: the binding signal was 0.0127 KA relative to UGCAUGU.

In the case of B14, the binding signal was 0.00177 KA relative to UGCAUGU.

Take B15: the binding signal is 0.0041 KA relative to UGCAUGU.

Turning to B16, the binding signal is 0.00198 KA relative to UGCAUGU.

As to B17, the binding signal is 0.00661 KA relative to UGCAUGU.

As to B18, the binding signal was 0.00817 KA relative to UGCAUGU.

For the molecule B19, the binding signal was 0.000958 KA relative to UGCAUGU.

Regarding B20, the binding signal is 0.0106 KA relative to UGCAUGU.

B21: the binding signal is 0.0128 KA relative to UGCAUGU.

In the case of B22, the binding signal was 0.0149 KA relative to UGCAUGU.

Regarding B23, the binding signal was 0.000883 KA relative to UGCAUGU.

Consider B24, for which the binding signal was 0.008 KA relative to UGCAUGU.

Take B25: the binding signal was 0.0104 KA relative to UGCAUGU.

Turning to B26, the binding signal is 0.0117 KA relative to UGCAUGU.

As to B27, the binding signal was 0.01 KA relative to UGCAUGU.

With B28, the binding signal was 0.0209 KA relative to UGCAUGU.

As for B29, the binding signal was 0.00927 KA relative to UGCAUGU.

Turning to B30, the binding signal is 0.0125 KA relative to UGCAUGU.

In the case of B31, the binding signal is 0.00677 KA relative to UGCAUGU.

These data come from publication PMC9911399, “Two distinct binding modes provide the RNA-binding protein RbFox with extraordinary sequence specificity”.
